Test results as given in PubChem BioAssay AID1460 (National Center for Advancing Translational Sciences (NCATS), 2008).
Several values for one entry are separate records, joined by “and”; a condition that tells them apart may be missing. Identical values can stand only once. About 5,800 (2.1%) of roughly 270,000 compounds were called active. The shares of active, inactive and inconclusive entries below differ from those in the screen. The call rests on the fitted dose curve; in most records, active means well fitted inhibition curve with a large enough effect; inconclusive means small, poorly fitted or top-dose-only effect; inactive means flat fitted curve, though single readings scatter. Where the call is inconclusive, the potency comes from a doubtful curve fit.
Further: nearly all actives have a fitted effect of over 55% in size.
On the % scale 0 is the no-effect control and ±100 the full control effect; potency means the concentration at half of the fitted maximal effect; tags describe the fitted curve by direction and shape.

Each molecule was assayed against Microtubule-associated protein tau (Homo sapiens) (UniProt P10636) (assay: qHTS for Inhibitors of Tau Fibril Formation, Thioflavin T Binding). Conditions: recombinant tau K18 P301L (four-repeat tau fragment), heparin-induced fibrillization, ThT fluorescence; series mostly up to 57.4 µM; activity, negative = inhibition: at the top concentration.
Chain of UniProt P10636 (P10636 whole entry, looked up, the tested form may be a part): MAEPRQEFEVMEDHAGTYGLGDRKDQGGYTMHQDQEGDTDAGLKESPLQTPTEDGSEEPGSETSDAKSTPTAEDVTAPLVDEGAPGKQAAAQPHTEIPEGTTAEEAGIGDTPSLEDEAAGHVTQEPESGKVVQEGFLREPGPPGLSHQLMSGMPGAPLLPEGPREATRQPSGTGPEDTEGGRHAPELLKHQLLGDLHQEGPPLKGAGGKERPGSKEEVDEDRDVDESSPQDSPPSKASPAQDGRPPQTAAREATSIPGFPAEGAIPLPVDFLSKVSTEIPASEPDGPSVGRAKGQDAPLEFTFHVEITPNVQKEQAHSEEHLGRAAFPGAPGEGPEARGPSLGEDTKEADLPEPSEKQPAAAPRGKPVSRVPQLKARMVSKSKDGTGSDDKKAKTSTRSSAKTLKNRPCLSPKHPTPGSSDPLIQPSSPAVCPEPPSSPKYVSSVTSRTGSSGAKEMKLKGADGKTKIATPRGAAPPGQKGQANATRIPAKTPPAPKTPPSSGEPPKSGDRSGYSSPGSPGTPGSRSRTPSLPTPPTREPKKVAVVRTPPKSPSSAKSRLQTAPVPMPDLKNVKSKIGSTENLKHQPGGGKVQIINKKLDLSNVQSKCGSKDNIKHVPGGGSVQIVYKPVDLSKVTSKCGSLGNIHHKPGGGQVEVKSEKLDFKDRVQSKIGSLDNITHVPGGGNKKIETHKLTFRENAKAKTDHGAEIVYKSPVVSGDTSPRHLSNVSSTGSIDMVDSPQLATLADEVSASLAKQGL
How it was run: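 Heparin-induced fibrillization of the P301L-mutant K18 repeat-domain fragment of human tau was followed by ThT binding in quantitative high-throughput format.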
With `O=C(NC1(C(F)(F)F)Oc2ccc(Cl)cc2O1)N1CCC2(CC1)OCCO2` (configuration not stated) the Potency was inconclusive: 12.6 µM [inhibitor, partial curve, poor fit].
`O=C(N/N=C/c1c(O)n(CCc2ccccc2)c(=O)[nH]c1=O)c1ccccc1` was tested, and the Potency was inconclusive: 12.6 µM [inhibitor, partial curve].
In the case of `CN(C)c1ccc(NC(=O)c2sc3nc4c(cc3c2N)N2CCC4CC2)cc1`, the Potency is reported as inconclusive: 1.41 µM [inhibitor, full curve].
With `C=C(C)[C@H]1Cc2c(ccc3c2O[C@@H]2COc4cc(OC)c(OC)cc4[C@@H]2C3=O)O1` the Potency was “inactive and inconclusive: 8.91 µM [inhibitor, partial curve, poor fit]”.
In the case of `CN1CCC(O)(c2ccccc2)C(C(=O)c2ccccc2)C1` (configuration not stated), the Potency is reported as inconclusive: 12.6 µM [inhibitor, partial curve].
`COP(=O)(OC)c1nc(-c2cccc3ccccc23)oc1N1CCCCC1` was tested, and the Potency was inconclusive: 20 µM [inhibitor, partial curve].
For `CCOC(=O)c1c(NS(=O)(=O)c2ccccc2)n(CCCOC)c2nc3ccccc3nc12`, the Potency was inconclusive: 7.94 µM [inhibitor, partial curve].
In the case of `COc1ccc(CCNc2nccn(-c3ccc(C)c(C)c3)c2=O)cc1OC`, the Potency is reported as inconclusive: 8.91 µM [inhibitor, full curve, poor fit].
With `C/C(=N\Nc1ccccc1)c1c(O)n(-c2ccccc2)c(=O)[nH]c1=O` the Potency was inconclusive: 1 µM [inhibitor, full curve, poor fit].
`Cc1nn(Cc2ccccc2)c2c1C(c1ccco1)C(C#N)=C(N)O2` (configuration not stated) was tested, and the Potency was inconclusive: 28.2 µM [inhibitor, single point].
With `O=C1/C(=C\c2ccccc2)C[C@@]2(O)[C@H]3Cc4ccc(O)c5c4[C@@]2(CCN3CC2CC2)[C@H]1O5` the “activity, negative = inhibition” value was inactive: -15.9%.
In the case of `Cc1ccc(N2C(=O)NC(=O)/C(=C/c3ccc(OC(=O)c4cccs4)cc3)C2=O)cc1`, the Potency is reported as inconclusive: 8.91 µM [inhibitor, partial curve].
`COC(=O)C[C@]1(C(=O)OC)CN(C#N)N(c2ccc(Cl)cc2)C12c1ccccc1-c1ccccc12` was tested, and the Potency was active: 14.1 µM.
With `c1cc2cc(c1)C[n+]1ccc(c3ccccc31)NCc1ccc(cc1)CNc1cc[n+](c3ccccc13)C2` the Potency was inconclusive: 39.8 µM [inhibitor, single point].
In the case of `O=C(N/N=C\C1C(=O)NC(=S)N(c2ccccc2)C1=O)c1ccc(O)cc1` (configuration not stated), the Potency is reported as inconclusive: 28.2 µM [inhibitor, partial curve].
With `Cc1ccc(C(=O)N[C@@H](C)CN2C3=NC[C@@H](Cc4ccccc4)N3C[C@H]2Cc2ccc(O)cc2)cc1Br` the Potency was inconclusive: 15.8 µM [inhibitor, single point].
`CCOC(=O)c1sc(/N=C/c2c(O)n(-c3cccc(C)c3)c(=O)[nH]c2=O)c(C#N)c1C` was tested, and the Potency was inconclusive: 8.91 µM [inhibitor, full curve, poor fit].
In the case of `O=[As](O)(O)c1ccc(N=Nc2ccc(O)cc2)cc1`, the Potency is reported as inconclusive: 14.1 µM [inhibitor, partial curve].
For `CN1CCN(c2ccc([N+](=O)[O-])c(N)c2)CC1`, the Potency was inconclusive: 20 µM [inhibitor, single point].
With `N#CC(C#N)=Cc1cccnc1` the Potency was inconclusive: 17.8 µM [inhibitor, partial curve].
`CC(=O)OC1CCC2(C)C3=C(CCC2C1(C)C)[C@]1(C)CCC(C(C)CCC=C(C)C)[C@]1(C)CC3` (some centres not stated) was tested, and the Potency was inconclusive: 11.2 µM [inhibitor, partial curve, poor fit].
`COC(=O)N(c1ccc(OC)cc1)P1(=S)OCCC(C)O1` (configuration not stated) was tested, and the Potency was active: 28.2 µM.
In the case of `O=C(NC(=O)c1c(F)cccc1F)Nc1cc(Cl)c(OC(F)(F)C(F)C(F)(F)F)cc1Cl` (configuration not stated), the Potency is reported as inconclusive: 22.4 µM [inhibitor, partial curve, poor fit].
In the case of `Fc1ccc(Cn2nnnc2CN2CCC(n3nnc4cc(C(F)(F)F)ccc43)CC2)cc1`, the “activity, negative = inhibition” value is reported as inactive: -7.55%.
`CCOC(=O)c1cc2c(cn1)[nH]c1ccccc12` was tested, and the Potency was inconclusive: 31.6 µM [inhibitor, single point].
For `Cc1ccccc1-n1c(/C=C/c2c(C)[nH]c3ccccc23)nc2ccccc2c1=O`, the Potency was inconclusive: 3.98 µM [inhibitor, full curve].
For `CC1(C)N(O)C(c2ccc(C(=O)O)cc2)=[N+]([O-])C1(C)C`, the Potency was inconclusive: 28.2 µM [inhibitor, partial curve].
In the case of `C=C(C=O)CC1CC(O)[C@]2(C)OC3CC4OC5C[C@]6(C)O[C@]7(C)CCC8OC9C[C@]%10(C)OC%11C(C)=CC(=O)OC%11CC%10OC9C[C@@H](C)C8OC7CC6O[C@]5(C)CC5OC5C4OC3CC2O1` (some centres not stated), the Potency is reported as inconclusive: 35.5 µM [inhibitor, single point].
In the case of `O=C1NC(=O)C(=Cc2coc3ccccc3c2=O)C(=O)N1`, the Potency is reported as inconclusive: 11.2 µM [inhibitor, partial curve].
`CCc1ccc(N2C(=O)NC(=O)/C(=C/c3cccn3CCOc3ccc(C)cc3)C2=O)cc1` was tested, and the Potency was inconclusive: 15.8 µM [inhibitor, partial curve].
`O=C1/C(=C\c2cc3c(cc2Cl)OCO3)N2CCC1CC2` was tested, and the “activity, negative = inhibition” value was inactive: 4.99%.
In the case of `COP(=S)(OC)SCN1C(=O)c2ccccc2C1=O`, the Potency is reported as active: 35.5 µM.
`C[C@H](CCC(=O)O)C[C@H](C)C[C@H](C)C(=O)/C=C(\O)[C@H](C)C[C@H](C)C/C=C/[C@@H](C)[C@@H](O)[C@@H](C)[C@@H](O)C[C@@H]1CC[C@@](C)(C2CC[C@@](C)([C@@H](C)O)O2)O1` (some centres not stated) was tested, and the Potency was inconclusive: 35.5 µM [inhibitor, partial curve].
For `Cc1cc(NC(=O)CCC(=O)N2CCC3(CC2)OCCO3)no1`, the “activity, negative = inhibition” value was inactive: 16.7%.
In the case of `O=c1[nH]c(=S)n(CCC2=CCCCC2)c(O)c1/C=N/Nc1ccccc1`, the Potency is reported as inconclusive: 20 µM [inhibitor, partial curve].
In the case of `OCC(O)Cc1ccc2c(c1)OCO2` (configuration not stated), the “activity, negative = inhibition” value is reported as inactive: -3.53%.
`CCCN(CCC)C1CCc2ccc(O)cc2C1` (configuration not stated) was tested, and the Potency was inconclusive: 7.08 µM [inhibitor, single point].
